# Results published in PubChem BioAssay AID624172 (National Center for Advancing Translational Sciences (NCATS), 2012).
# The whole screen tested about 380,000 compounds, of which about 25 (0.007%) were called active. Inconclusive results, whose numbers are uncertain, are shown with a selection of clear calls. The call rests on the fitted dose curve; in most records, active means well fitted activation curve with a large enough effect; inconclusive means small, poorly fitted or top-dose-only effect; inactive means no such curve, though single readings can be large or run the other way. Potencies of inconclusive entries are left out as doubtful fits.
# Biological target: Glucagon-like peptide 1 receptor (Homo sapiens) (UniProt P43220)
# UniProt P43220, sequence (P43220 whole entry, looked up): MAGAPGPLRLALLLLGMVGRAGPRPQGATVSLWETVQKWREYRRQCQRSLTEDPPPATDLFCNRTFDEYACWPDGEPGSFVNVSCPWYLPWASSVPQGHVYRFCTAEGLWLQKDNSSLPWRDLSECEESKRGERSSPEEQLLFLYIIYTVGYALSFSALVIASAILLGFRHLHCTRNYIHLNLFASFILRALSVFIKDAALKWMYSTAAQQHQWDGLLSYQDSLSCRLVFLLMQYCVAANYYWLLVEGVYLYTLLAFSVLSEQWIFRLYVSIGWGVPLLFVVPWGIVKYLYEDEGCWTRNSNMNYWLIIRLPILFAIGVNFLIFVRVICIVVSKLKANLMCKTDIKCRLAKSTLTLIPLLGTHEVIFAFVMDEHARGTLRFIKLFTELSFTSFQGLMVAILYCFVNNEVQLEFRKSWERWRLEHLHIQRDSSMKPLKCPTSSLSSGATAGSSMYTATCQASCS
# Assay: qHTS of GLP-1 Receptor Agonists; on activation: % of control where 0% means no effect
# Settings: HEK293 GLP-1R CRE-luciferase, luminescence, 4-6 h, cells express a hypersensitive GLP-1R form; activation: at 45.6 µM (top of the series) unless noted
# Potency means the concentration at half of the fitted maximal effect; tags describe the fitted curve by direction and shape.
SMILES,Potency,activation
O=C(CSc1nc2cc3ccccc3cc2[nH]1)Nc1ccc(F)cc1,"inconclusive [activator, single point]",–
COCCNC(=O)c1ccc2c(c1)ncn2-c1ccc(C)c(Cl)c1,"inconclusive [activator, full curve, poor fit]",–
O=C(CN1CCC(n2nnc3ccccc32)CC1)Nc1ccc2c(c1)CCC2,inactive,–
COCCNc1nc(N)c([N+](=O)[O-])c(NC2CCCCC2)n1,"inconclusive [activator, partial curve, poor fit]",–
O=S(=O)(NCc1ccc2c(c1)OCO2)c1ccc2c(c1)oc1ccccc12,"inconclusive [activator, partial curve, poor fit]",–
Cn1c(SCC(=O)Nc2ccc(Cl)cc2F)nnc1-c1ccco1,inactive,–
COc1ccc(-c2cn3cc(Cl)ccc3n2)cc1OC,"inconclusive [activator, full curve]",–
CCOc1ccc(NC(=O)Cn2c(=O)n(CC3CCC(C(=O)NCCc4ccccc4)CC3)c(=O)c3ccccc32)cc1 (stereo not given),inactive,–
COc1ccc(CNC(=O)Cn2ncc3c(=O)oc4ccccc4c32)c(OC)c1,inactive,–
CCOC(=O)c1ccc(N)cc1,"inconclusive [activator, single point]",–
C=CCn1c(SCC(=O)NCC2CCCO2)nc2sc(CC)cc2c1=O (stereo not given),inactive,–
COc1ccc(NC(=O)CSc2nnc(C3CCCCC3)o2)c(OC)c1,inactive,–
CCCCCc1ccc(-c2ccc(=O)[nH]n2)cc1,"inconclusive [activator, single point]",–
COc1cc(/C=N/N(CCO)C2=NS(=O)(=O)c3ccccc32)cc(OC)c1OC,"inconclusive [activator, full curve, poor fit]",–
CN(C=[N+](C)C)c1cccc2c1C(=O)c1ccccc1C2=O,"inconclusive [activator, single point]",–
O=C(c1ccc2c(c1)C(=O)N(CCCO)C2=O)c1ccc2c(c1)C(=O)N(CCCO)C2=O,inactive,–
COc1ccc(CCn2c(C)nc3c(c(=O)c4ccccc4n3C)c2=O)cc1,inactive,–
CCN(C(=O)c1cc2c(=O)n3ccccc3nc2s1)C1CCCCC1,"inconclusive [activator, single point]",–
CCOC(=O)c1c(NC(N)=O)sc(C)c1C,"inconclusive [activator, partial curve, poor fit]",–
Cc1ccc(-c2nc(NCc3ccco3)c3ccccc3n2)cc1,"inconclusive [activator, partial curve, poor fit]",–
Cc1ccc(-c2nnc3n2N=C(c2ccccc2Br)CS3)cc1,"inconclusive [activator, single point]",–
Oc1ccc(/C=N/NC(=S)NC2CC3CCC2C3)cc1 (stereo not given),"inconclusive [activator, single point]",–
CCOC(=O)c1c(NC(=O)Cc2ccccc2)sc2c1CC(C)(C)NC2(C)C,"inconclusive [activator, partial curve, poor fit]",–
COc1ccc(C(=O)Nc2ccccc2C(=O)NCc2ccco2)cc1OC,"inconclusive [activator, partial curve, poor fit]",–

SMILES,Potency,activation
CNc1nccc(-c2ccc(Cl)cc2)c1C#N,"inconclusive [activator, single point]",–
CCC(C)C(=O)Nc1nccs1 (stereo not given),–,inconclusive: 35.4% [activator]
Cc1nc2ccc(NC(=O)NCc3ccco3)cc2s1,"inconclusive [activator, partial curve, poor fit]",–
O=C(CSc1ccc(-c2cccs2)nn1)Nc1ccccc1,inactive,–
CC1(c2ccccc2)NC(=O)N(CC(=O)NNC(=O)c2ccccc2F)C1=O (stereo not given),–,inconclusive: 37% [activator]
Cc1cccc(NC(=O)Cn2c(=O)n(Cc3ccccc3)c(=O)c3sc4ccccc4c32)c1,inactive,–
O=C(c1ccc(-c2ccccc2Cl)o1)N1CCCCCCC1,"inconclusive [activator, single point]",–
Cc1cc(SCC(=O)NCC(c2cccs2)N2CCOCC2)c(C)cc1Br (stereo not given),inactive,–
CCCCCn1nc(C(=O)OCc2nc(N)nc(Nc3ccccc3)n2)c2ccccc2c1=O,"inconclusive [activator, partial curve, poor fit]",–
CCC(C)Sc1cc(-c2nc3ccccn3c2NC2CCCCC2)ccc1OC (stereo not given),inactive,–
Cn1cnnc1SCC(=O)Nc1ccc2nc(SCc3ccccc3)sc2c1,"inconclusive [activator, partial curve, poor fit]",–
CN(C)c1ncnc2sc(-c3ccccc3)cc12,"inconclusive [activator, partial curve]",–
COCCCNC(=S)N/N=C/c1ccc(O)cc1,inactive,–
O=[N+]([O-])c1cccc(/C=N/NC2=NS(=O)(=O)c3ccccc32)c1,–,inconclusive: 52.6% [activator]
c1ccc(Cn2nnc3c(N4CCC5(CC4)OCCO5)ncnc32)cc1,"inconclusive [activator, partial curve, poor fit]",–
COc1cc(/C=C2\OC(=O)c3c(OC)cccc32)ccc1O,"inconclusive [activator, full curve, poor fit]",–
OC[C@@H]1CN(Cc2ccc(F)cc2)C[C@H](n2cnc3c(Nc4ccccc4)ncnc32)O1,inactive,–
COc1ccc([C@H]2CC(=O)C=C(c3cc(F)ccc3F)C2)cc1OC,"inconclusive [activator, partial curve, poor fit]",–
CCC(C)(C)n1nnnc1CN(Cc1cccs1)Cc1cc2cc(OC)ccc2[nH]c1=O,inactive,–
COc1cc2c(cc1OC)CN(C(=O)c1ccc(S(=O)(=O)N(C)c3ccccc3)cc1)CC2,"inconclusive [activator, partial curve]",–
COc1ccc(OC)c(-c2cc(C(=O)NCc3ccco3)no2)c1,"inconclusive [activator, single point]",–
COc1ccc(Nc2nc(-c3sc(C)nc3C)cs2)cc1,"inconclusive [activator, partial curve, poor fit]",–
CCC(C(=O)NC1CCCC1)N(C(=O)Cn1nnc(-c2ccc(OC)c(OC)c2)n1)C1CCCCC1 (stereo not given),"inconclusive [activator, partial curve, poor fit]",–
CCCCc1nc2n[nH]c(N)c2c2c1CSC(C)(C)C2,"inconclusive [activator, partial curve, poor fit]",–

SMILES,Potency,activation
COc1cc(C2CC(=O)NC(SCC(=O)Nc3ccccc3C)=C2C#N)ccc1O (stereo not given),"inconclusive [activator, single point]",–
Clc1ccccc1OCCCOc1cccc2cccnc12,inactive,–
C=CCOc1nc(N2CCCC2)nc(N2CCCC2)n1,"inconclusive [activator, single point]",–
OC[C@H]1O[C@@H](n2cnc3c(Nc4ccccc4)ncnc32)[C@H](O)[C@@H]1O,"inconclusive [activator, partial curve, poor fit]",–
COc1ccc(N(C(=O)/C=C/c2ccc(OC)c(OC)c2)C2=CC3CCC(C2)N3C)cc1 (stereo not given),"inconclusive [activator, full curve]",–
O=C(Nc1ccc(N2CCOCC2)nc1N1CCOCC1)c1cccc(C(F)(F)F)c1,inactive,–
N#Cc1ccc(-c2cccs2)nc1SCc1cccnc1,"inconclusive [activator, partial curve, poor fit]",–
c1ccc(-c2nn3c(Cn4cnc5ccccc54)nnc3s2)cc1,"inconclusive [activator, partial curve, poor fit]",–
O=C(CSc1ccc([N+](=O)[O-])cn1)Nc1ccc2c(c1)OCCO2,inactive,–
Cc1cccc(C)c1NC(=S)N(CCN(C)C)Cc1cccs1,inactive,–
O=C(CC(=O)Nc1ccccc1F)Nc1ccccc1F,inactive,–
CCOC(=O)c1c(C)oc2c(CN3CCN(C)CC3)c(Br)c(OC)c(O)c12,"inconclusive [activator, partial curve, poor fit]",–
COc1cc(CN2CCC(C(=O)N3CCN(c4ccccc4F)CC3)CC2)cc(OC)c1O,inactive,–
CCOc1ncccc1C(=O)OCC(=O)Nc1cc(S(=O)(=O)N(CC)CC)ccc1C,"inconclusive [activator, partial curve, poor fit]",–
COc1ccc(-c2c(-c3ccc(O)cc3O)n[nH]c2C(F)(F)F)cc1,inactive,–
C=CCN1C(=O)/C(=C/C(=O)OC)S/C1=N\NC(=O)c1ccccc1,–,inconclusive: 58.6% [activator]
CCOc1ccccc1Nc1nc(-c2sc(C)nc2C)cs1,"inconclusive [activator, partial curve, poor fit]",–
CN(C)/C=N/c1nc2nccc(-c3ccccc3)n2n1,–,inconclusive: 66.4% [activator]
COc1ccc(OC)c(C2=NOC(C(=O)Nc3ccccc3SC)C2)c1 (stereo not given),"inconclusive [activator, single point]",–
Cn1ncc2c(Nc3ccccc3Cl)nc(Cl)nc21,"inconclusive [activator, partial curve, poor fit]",–
Cc1cc(=O)oc2cc(OCc3nnc(-c4ccccc4Br)o3)ccc12,"inconclusive [activator, single point]",–
Cc1ccc(OCC(=O)NC2CCCC(C)C2C)c([N+](=O)[O-])n1 (stereo not given),"inconclusive [activator, partial curve]",–
